# Results: PubChem BioAssay AID1508642 (National Center for Advancing Translational Sciences (NCATS), 2021)
# Among all 43,000 compounds or so, about 200 (0.47%) were called active. Inconclusive results (about 12%) are left out. Calls come from the whole dose curve; as a rule, active = well fitted cell-killing curve with a large enough effect; inconclusive = small, poorly fitted or top-dose-only effect, or effect the other way; inactive = flat fitted curve, though single readings scatter. The list shows a part of the results.
# Experiment: Cell viability qHTS assay in S16 Pmp22-F2sN cells; note: nearly all actives have a fitted effect of over 65% in size
# Settings: S16 Pmp22-F2sN Schwann cells viability, CellTiter-Glo, 24 h; series mostly up to 57.5 µM; activity change, negative = cytotoxicity: at the top concentration
# Procedure, shortened: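 Viability was measured by CellTiter-Glo luminescence (15 min, room temperature). This followed 24 h at 37 °C of compound exposure (23 nL pin transfer) in S16 Pmp22-F2sN Schwann cells, 500-1,000 per well.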
# % is set by controls: 0 for no effect and ±100 for the full control effect.
row,Structure (SMILES),"activity change, negative = cytotoxicity"
1,COc1ccc(S(=O)(=O)N2CCC(Oc3ccc(-n4cnnn4)cc3)CC2)cc1OC,inactive: -7.69%
2,Oc1c(C(c2ccccc2Cl)N2CCCC2)sc2nc(-c3ccco3)nn12 (centres undefined),inactive: 0.418%
3,CCOc1ccc(N(CC(=O)NCc2ccccc2Cl)S(=O)(=O)c2c(C)[nH]c(=O)[nH]c2=O)cc1,inactive: -1.71%
4,CC(=O)Nc1ccc(NC(=O)CSc2nc3ccccc3nc2N2CCOCC2)cc1,inactive: -18.2%
5,CCc1ccc(NC(=O)CN(c2ccc(OC)cc2)S(=O)(=O)c2c(C)[nH]c(=O)[nH]c2=O)cc1,inactive: 5.27%
6,COc1ccc(-n2c(CC3C(=O)N(C)c4ccc(C)cc43)nc3ccccc3c2=O)cc1 (centres undefined),inactive: 1.78%
7,Cc1ccccc1C(=O)Nc1nnc(S(=O)(=O)N2c3ccccc3CC2C)s1 (centres undefined),inactive: -6.24%
8,O=C(NCc1ccco1)c1ccc2c(c1)N(Cc1cccc(Cl)c1)C(=O)c1ccccc1S2(=O)=O,inactive: -13.4%
9,COc1ccc(-c2noc(CNC(=O)c3ccco3)n2)cc1,inactive: 15.9%
10,Cc1ccc(CNC(=O)CSc2cc(C)[nH]c(=O)n2)cc1,inactive: 5.29%
11,COc1ccc(CCNc2ncnc3c2cnn3-c2ccc(C)cc2)cc1,inactive: 22%
12,Fc1ccc(CN2CCc3nc(Nc4ccccc4)ncc3C2)cc1F,inactive: -2.6%
13,COc1ccc(CCNC(=O)c2ccc3c(c2)N(Cc2ccccc2F)C(=O)c2ccccc2S3(=O)=O)cc1OC,inactive: -5.58%
14,Cc1ccc(CN(Cc2ccco2)C(=O)COc2cc(C)c(Cl)c(C)c2)cc1,inactive: -25.7%
15,O=c1c2c(-c3ccccc3)ccnc2[nH]n1-c1ccccc1,inactive: 4.57%
16,CCCC1=Nc2cc(C(=O)NC(C)c3ccccc3)ccc2Sc2ccc(C)cc21 (centres undefined),inactive: -18%
17,Cc1nn(C(=O)c2c(F)cccc2F)c(C)c1S(=O)(=O)N1CCOCC1,inactive: 0.302%
18,O=C(CCN1N=C(c2ccccc2)CCC1=O)NCCc1ccc(Cl)cc1,inactive: 9.7%
19,Cc1cc(C(F)F)n2nc(C(=O)Nc3c(C)cccc3C)nc2n1,inactive: 6.39%
20,Cc1cccc(N2CCN(C(=O)c3cc4c(=O)oc5ccccc5c4s3)CC2)c1C,inactive: 0.614%
21,CCCCn1c(SCC(=O)NCCCOC)nc2c(sc3ccccc32)c1=O,inactive: -2.01%
22,CCn1c(=O)c2sccc2n2c(CCCC(=O)N3CCN(c4cc(Cl)ccc4C)CC3)nnc12,inactive: 13.2%
23,Cc1cc(C)c(NC(=O)CSc2nc3nc(C)cc(C)n3n2)c(C)c1,inactive: -1.21%
24,Cc1cc(C)c(NC(=O)CSc2ccc(-c3sc(-c4ccccc4)nc3C)nn2)c(C)c1,inactive: 14%
25,COc1ccccc1N1CCN(c2ncccc2-c2nc(-c3ccc(Cl)cc3)no2)CC1,inactive: 16.2%

row,Structure (SMILES),"activity change, negative = cytotoxicity"
1,CCCCOc1cccc(C2c3c(oc4ccccc4c3=O)C(=O)N2c2ccccn2)c1 (centres undefined),inactive: -15.6%
2,CCc1ccc(C(=O)c2cn(CC(=O)Nc3ccc(OC)c(OC)c3)c3ccc(C)cc3c2=O)cc1,inactive: 16.9%
3,O=C(CSc1nc(-c2ccc(F)cc2)[nH]c1-c1ccccc1)NCC1CCCO1 (centres undefined),inactive: -15.2%
4,CCOC(=O)c1c(-c2ccc(C)cc2)csc1NC(=O)c1nc(SCC)ncc1Cl,inactive: 1.41%
5,Cc1ccc(-n2c(=O)c3ccc(C(=O)NCc4ccccc4Cl)cc3n(Cc3ccccc3F)c2=O)cc1,inactive: -4.19%
6,COc1cccc(NS(=O)(=O)c2ccc3[nH]cc(C(=O)N4CCCCCC4)c(=O)c3c2)c1,inactive: 2.4%
7,O=C(NC1CC(=O)N(c2cccc(F)c2)C1)C1CC1 (centres undefined),inactive: 11.2%
8,Cc1ccc(NC(=O)c2oc3ccccc3c2NC(=O)c2ccccc2C)cc1,inactive: 3.61%
9,COc1ccc(Cn2c(=O)c3cccnc3n(Cc3cccc(OC)c3)c2=O)cc1,inactive: 3.12%
10,CSc1nnc(NC(=O)Cc2coc3cc(C)ccc23)s1,inactive: 20%
11,Nc1cccc(-c2cn3ccsc3n2)c1,inactive: 1.67%
12,COc1cc(/C=C(\C#N)c2nc3ccccc3n2C)cc(OC)c1OC,inactive: -18.9%
13,Cc1ccc(NC(=O)c2cc(S(=O)(=O)N3CCCC(C)C3)cn2C)c(Br)c1 (centres undefined),inactive: 15.4%
14,O=c1c2cc3c(cc2nc2sc(Nc4ccc(F)c(Cl)c4)nn12)OCO3,inactive: 17.8%
15,COc1cc(OC)c(N(C)C(=O)Cn2ncc3c([nH]c4ccccc43)c2=O)cc1Cl,inactive: -1.73%
16,CCN1CCN(c2oc(/C=C/c3ccccc3OC)nc2C#N)CC1,inactive: 6.11%
17,Cn1c(=O)c2c(-c3cccc(Br)c3)n(CCO)cc2n(C)c1=O,inactive: 0.848%
18,Cc1cccc(OCC(=O)OCc2cc(=O)n3nc(C4CCCCC4)sc3n2)c1,inactive: 25.2%
19,COc1ccc(C(=O)COC(=O)c2cccc(NC(=O)c3ccc(OC)c(OC)c3)c2)cc1,inactive: -3.75%
20,CCOC(=O)C(CC)n1nc(C)n2c(cc3occc32)c1=O (centres undefined),inactive: 13.8%
21,Cc1ccc(S(=O)(=O)NCC(c2ccc(N(C)C)cc2)N2CCOCC2)cc1 (centres undefined),inactive: 0.308%
22,O=C(NC1CCCCCC1)C1CCN(C(=O)N2CCOc3ccccc32)CC1,inactive: 0.232%
23,COc1ccc(C(=O)c2cn(Cc3ccc(F)cc3)c3ccc(C)cc3c2=O)cc1,inactive: -0.194%
24,Cc1ccc(-c2nc3ccccn3c2Nc2ccc3c(c2)OCO3)cc1,inactive: -4.91%
